Publication PMC6919601, “Identification of Plasmodium dipeptidyl aminopeptidase allosteric inhibitors by high throughput screening” (PLoS ONE, 2019)
The campaign covered roughly 110,000 compounds. About 230 (0.21%) showed an effect of 50% or more. The list shows a part of the results.

Molecular target: DPAP1 (Plasmodium falciparum, UniProt Q8IIJ9)
Assay: primary screen, percent inhibition; read by cleavage of a fluorogenic dipeptide substrate; higher = more effect of the substance
Parameters: species or system P. falciparum D10 trophozoite lysates; single well
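Further: 30 min substrate incubation versus DMSO and 10 µM JCP410 controls.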

Sequence of DPAP1 (Q8IIJ9 whole entry, looked up): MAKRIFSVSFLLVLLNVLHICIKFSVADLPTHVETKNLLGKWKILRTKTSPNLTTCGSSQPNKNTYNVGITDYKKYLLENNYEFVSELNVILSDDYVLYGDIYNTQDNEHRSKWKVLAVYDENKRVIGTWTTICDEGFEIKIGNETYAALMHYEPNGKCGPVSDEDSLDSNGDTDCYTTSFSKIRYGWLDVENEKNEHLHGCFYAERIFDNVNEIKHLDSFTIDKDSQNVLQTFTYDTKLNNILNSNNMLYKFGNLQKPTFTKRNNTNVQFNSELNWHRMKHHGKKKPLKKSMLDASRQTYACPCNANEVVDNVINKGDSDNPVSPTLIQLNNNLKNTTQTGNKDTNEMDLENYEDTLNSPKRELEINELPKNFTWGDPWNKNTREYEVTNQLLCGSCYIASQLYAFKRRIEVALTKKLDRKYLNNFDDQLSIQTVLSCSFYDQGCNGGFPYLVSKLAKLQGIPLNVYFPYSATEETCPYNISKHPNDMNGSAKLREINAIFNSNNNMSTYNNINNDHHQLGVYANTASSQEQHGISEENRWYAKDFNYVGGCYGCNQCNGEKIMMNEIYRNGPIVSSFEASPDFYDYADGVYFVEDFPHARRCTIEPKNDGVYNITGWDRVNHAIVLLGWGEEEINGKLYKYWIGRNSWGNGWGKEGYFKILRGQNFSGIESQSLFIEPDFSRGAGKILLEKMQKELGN

Row | Structure (SMILES) | % Inhibition @ 10 uM
1 | CCC(O)c1nc2ccccc2n1C (stereo not shown) | 2.05%
2 | Cc1ccc(C2=NS(=O)(=O)N(C)C(C(=O)NCC3CCCO3)=C2)cc1 (stereo not shown) | 2.32%
3 | COc1ccc(OC)c(C2C3=C(O)CC(C)(C)CC3=Nc3ccccc3N2C(C)=O)c1 (stereo not shown) | -6.59%
4 | CN(C)Cc1cc(CN(C)C)c(O)c(C(C)(C)C)n1 | -1.86%
5 | O=C1Oc2ccccc2C(=O)/C1=C(O)/C=C/c1ccc(-c2ccccc2)o1 | 3.27%
6 | COc1cccc(C2=NS(=O)(=O)N(C)C(C(=O)NCC34CC5CC(CC(C5)C3)C4)=C2)c1 | -6.59%
7 | NC(=O)c1cc(S(=O)(=O)N(Cc2ccco2)C2CCCCC2)cs1 | -5.12%
8 | CN1C(=O)CC(N2CCN(c3ccccc3)CC2)C1=O (stereo not shown) | -0.992%
9 | Cc1ccc2nc(NC(=O)c3sc(C)nc3C)sc2c1 | 0.758%
10 | c1ccc(CSc2nc3ncccc3o2)nc1 | 3.31%
11 | O=C(NC1CCN(Cc2ccccc2)CC1)c1sc2ccccc2c1Cl | -4.35%
12 | Cc1cc(C)c(NC(=O)C(C)N2CCCCCC2)c(C)c1 (stereo not shown) | -4.01%
13 | CCOC(=O)c1cnn2c(N)c(C#N)nnc12 | -7.51%
14 | CCOC(=O)c1c(/N=c2\oc3cc(O)ccc3cc2C(N)=O)sc2c1CCCC2 | 1.25%
15 | CC1=C(C(=O)Nc2ccc(C)cn2)C(c2sccc2C)C2=C(O)CC(C)(C)CC2=N1 (stereo not shown) | -0.968%
16 | OC1CCN(Cc2ccc(-c3ccccc3)cc2)CC1 | 3.25%
17 | COc1ccc(CCNCc2c(C(=O)O)c(C)n(Cc3ccc(F)cc3)c2C)c(OC)c1OC | -3.67%
18 | COc1ccc(NC(=O)CN(c2cc(C)ccc2C)S(=O)(=O)c2ccccc2)c(OC)c1 | -3.39%
19 | CC(O)c1cccc(NC(=O)c2cc3n(n2)C(C(F)(F)F)CC(c2ccc(F)cc2)N3)c1 (stereo not shown) | -2.29%
20 | O=[N+]([O-])c1cccc(CN2CCN(c3cccc(Cl)c3)CC2)c1 | -1.86%
21 | Cc1cccc(Cn2c(Sc3nc(C)cs3)nc3c2c(=O)[nH]c(=O)n3C)c1 | 4%

Row | Structure (SMILES) | % Inhibition @ 10 uM
22 | COc1ccc(Br)cc1CNC(=O)C1CCN(C(=O)N(C)C)CC1 | 0.387%
23 | CCOC(=O)N1CCN(C(=O)CN(c2cccc(F)c2)S(C)(=O)=O)CC1 | 1.27%
24 | COc1ccc(-c2c(C)nn3c(NCc4ccc(F)cc4)cc(C)nc23)cc1OC | -0.138%
25 | CCN(CC)CCCOC(=O)C(OC)(c1ccccc1)c1ccccc1 | 0.0345%
26 | CCCN(CC1CC1)C(C)CCc1ccc(O)cc1 (stereo not shown) | 3.19%
27 | O=C(NCCC1=CCCCC1)c1ccc(C(=O)NCCC2=CCCCC2)nc1 | 0.389%
28 | COc1ccc(C2C(C(=O)c3ccccc3)=C(O)C(=O)N2CCN2CCOCC2)cc1OC (stereo not shown) | -0.478%
29 | C=CCOc1ccc(C(=O)N(Cc2ccc(CC)cc2)C2CCS(=O)(=O)C2)cc1 (stereo not shown) | 5.26%
30 | Cc1ccc(-n2nc3c(c2NC(=O)c2ccccc2C(F)(F)F)CS(=O)(=O)C3)cc1 | 5.35%
31 | Cc1cccc2c(C(=O)O)cc(-c3ccccc3O)nc12 | -2.85%
32 | O=C(Cn1cnc2c(oc3ccccc32)c1=O)N1CCC(Cc2ccccc2)CC1 | 1.64%
33 | C#CC(C)(CCC=C(C)C)OC(=O)Cn1c(=O)sc2cccc(Cl)c21 (stereo not shown) | -0.833%
34 | Cc1ccc(-c2csc(N)c2C(N)=O)cc1C | 1.59%
35 | O=C(COc1ccc(Cl)cc1)NCc1nnc(SCC(=O)NCc2ccc3c(c2)OCO3)o1 | 0.163%
36 | CC(=O)N[C@@H](Cc1ccccc1C(F)(F)F)C(=O)N[C@@H](CCc1ccccc1)C(=O)c1nc2ccccc2o1 | -0.214%
37 | CCCCN(C)CCCNC(=O)Cn1ncc2c3ccccc3n(C)c2c1=O | 2.99%
38 | CCOC(=O)/C(C#N)=C/c1c(Oc2ccccc2OC)nc2ccccn2c1=O | -5.1%
39 | CN1C(c2ccccc2)CC(O)(Cc2ccccc2)CC1c1ccccc1 (stereo not shown) | -6.88%
40 | O=C(O)c1ccc2c(c1)Sc1ccccc1CC2=O | -4.54%
41 | CCOc1ccc(Nc2cc(=O)n(C)c(=O)n2C)cc1 | -4.93%
42 | C=CCn1c(SCC(=O)Nc2sc3c(c2C(=O)OCC)CCCC3)nnc1-c1cccs1 | -5.15%

Row | Structure (SMILES) | % Inhibition @ 10 uM
43 | Cc1ccc(Sc2c(C)nn(C(=O)c3cccnc3)c2C)cc1 | 1.84%
44 | CCOC(=O)c1c(NC(=O)CSc2nnc3c4ccccc4n(CC)c3n2)sc2c1CCC2 | 4.95%
45 | COc1ccc(N(CC(=O)Nc2ccccc2)S(=O)(=O)c2ccccc2)cc1OC | -0.469%
46 | COc1ccc(S(=O)Cc2ccc(C(=O)N3CCN(C4CCCCC4)CC3)o2)cc1 (stereo not shown) | -0.999%
47 | COc1ccc(/C=C2\C(=O)N(c3ccc(Cl)cc3)N=C2C)cc1OC | -2.51%
48 | Cc1nnc2sc(NC(=O)CC(C)C)nn12 | -1.26%
49 | CCOC(=O)C1=CN(Cc2ccc(OC)cc2)C=C(C(=O)OCC)C1c1cc(OC)c(O)c(OC)c1 | 0.219%
50 | O=C1N/C(=C\c2ccc([N+](=O)[O-])cc2)C(=O)c2ccccc21 | -2.02%
51 | COC(=O)C1=C(C)N(C)C(=O)NC1c1ccc(OC)c(Br)c1 (stereo not shown) | 0.736%
52 | C=C(C)CN(CC)C1CCN(C(=O)OCC)CC1 | -3.6%
53 | Cc1ccc(-c2noc(CNC(=O)N3CCOCC3)n2)cc1 | 0.486%
54 | CCNC(=O)c1cc2c(C)nn(-c3ccccc3)c2s1 | 1.57%
55 | O=C(C1COc2cc(S(=O)(=O)NCCc3ccc(Cl)cc3)ccc2O1)N1CCCCC1 (stereo not shown) | -2.85%
56 | CC(C)(C)NC(=O)CSc1nc(-c2ccccc2)cc(C(F)(F)F)n1 | -1.65%
57 | COc1cccc(C(C(=O)NC2CCCCC2)N(C(=O)c2cnccn2)c2cccs2)c1 (stereo not shown) | -1.07%
58 | O=S(=O)(Nc1ccccn1)c1ccc2[nH]c3c(c2c1)CCCCC3 | -4.13%
59 | COC(=O)c1c(C)oc2ccc(O)cc12 | 4.66%
60 | CCOc1ccc(NS(=O)(=O)c2ccc(NC(=O)c3ccc(F)cc3)cc2)cc1 | -2.19%
61 | CCOc1cc(/C=C2/C(=N)N3N=C(c4ccc(C)cc4)SC3=NC2=O)ccc1O | -0.0829%
